These results are taken from patent US20230242671A1.

For the assay, the target named is CaptureSelect Kappa XL ligand. The experiment in a line: CaptureSelect Kappa XL affinity column after Protein A.

B1: cMet mAb (DKK on both LCs) (antibody, human IgG1)
heavy: EVQLVESGGGLVQPGGSLRLSCAASGYTFTSYWLHWVRKAPGKGLEWVGMIDPSNSDTRFNPEFKDRFTISADTSKNTAYLQMNSLRAEDTAVYYCATYRSYVTPLDYWGQGTLVTVSSASTKGPSVFPLAPSSKSTSGGTAALGCLVKDYFPEPVTVSWNSGALTSGVATGPAVLQSSGLYSLSSVVTVPSSSLGTQTYICNVNHKPSNTKVDKKV[sequence of human IgG1 Fc with changes omitted]
light: RIQMTQSPSSLSASVGDRVTITCKSSQSLLYTSSQKNYLAWYQDKPGKAPKLLIYWASTRESGVPSRFSGSGSGTDFTLTISSLQPEDFATYYCQQYYAYPWTFGQGTKVEIKRTDAAPSVFIFPPSDEQLKSGTASVVCYLNNFYPRKAKVQWKVDNALQSGNSQESVTEQDSKDSTYSLWSTLTLSKADYEKHKVYACEVTHKGLSSPVTKSFNRGEC
Take B1: the % Flow Through (FT) came to 100%.
